Experimental data as given in PubChem BioAssay AID1346428 (National Center for Advancing Translational Sciences (NCATS), 2018).
In all, about 48,000 compounds went through this assay and about 1,200 (2.5%) were called active. Inconclusive results (about 2%) are left out.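 Rule for the calls: active = activation of at least 60% and not above a set upper limit (about 1 call in 100 departs from these limits); inconclusive = activation of 40% to 60%, or above that upper limit; inactive = activation under 40%.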 The list shows a part of the results.

target: Probable G-protein coupled receptor 32 (Homo sapiens) (UniProt O75388); test: qHTS for Agonists of Human Resolvin D1 Receptor DRV1; conditions: CHO-K1 GPR32 beta-arrestin PathHunter luminescence, 90 min; at 76.9 µM; active compounds read high; zero percent set by DMSO-only wells; note: 0% is about no effect
Summary of the method: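 Luminescent readout of beta-Gal complementation quantifies ligand-induced beta-arrestin association with GPR32 in CHO-K1 cells; 90 min compound incubation at 37 °C, detection 1 h at room temperature.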

UniProt O75388, sequence (O75388 whole entry, looked up): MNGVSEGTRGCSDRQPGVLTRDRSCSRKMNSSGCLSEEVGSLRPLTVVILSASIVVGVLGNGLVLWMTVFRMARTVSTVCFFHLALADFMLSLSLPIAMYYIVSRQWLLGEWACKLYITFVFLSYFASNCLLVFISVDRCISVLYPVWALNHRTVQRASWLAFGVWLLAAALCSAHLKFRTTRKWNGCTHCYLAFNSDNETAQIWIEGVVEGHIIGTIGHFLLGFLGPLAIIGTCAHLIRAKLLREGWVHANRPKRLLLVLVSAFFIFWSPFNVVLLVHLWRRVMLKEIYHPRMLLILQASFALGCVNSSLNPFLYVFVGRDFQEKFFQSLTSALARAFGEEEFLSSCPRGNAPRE

Structure (SMILES)	activation
CC(=O)c1ccc(NC(=O)Cn2ncc3c(C)n(Cc4ccc(F)cc4)c(C)c3c2=O)cc1	inactive: -11.4%
CC1CCN(S(=O)(=O)c2ccc3c(c2)N(CC(=O)N2CCN(c4ccccc4)CC2)C(=O)CO3)CC1	inactive: -5.41%
COc1cccc(Cn2c(CNS(=O)(=O)c3ccc4c(c3)CCCC4)nc3cccnc32)c1	inactive: -22.6%
O=C1C(=O)N(C2CCN(C(=O)c3ccc(Cl)cc3)CC2)CCN1Cc1ccc(F)cc1	inactive: 11.4%
CCN(CC)CCCNC(=O)c1ccc2nc(N3CCCCC3)sc2c1	inactive: -6.72%
CCNC(=O)c1ccc2nc(CCc3ccccc3)oc2c1	inactive: -10.6%
COc1ccc(CCNC(=O)c2cc(C)nc3c2c(C)nn3-c2ccc(C)cc2)cc1OC	inactive: -20%
Cc1cc(Nc2ccccc2C)nc(-n2nc(C)cc2C)n1	inactive: -17.6%
O=C(CN1CCSc2ccccc21)NCc1ccccc1F	inactive: -7.94%
CCOc1ccccc1C(=O)N(Cc1cc(OC)c(OC)c(OC)c1)C1CCS(=O)(=O)C1 (centres undefined)	inactive: -5.24%
CCCN(C(=O)c1cn(C)c(=O)c2ccccc12)c1ccccc1C	inactive: 4.04%
COc1ccc2nc(N(Cc3cccnc3)C(=O)C3COc4ccccc4O3)sc2c1 (centres undefined)	inactive: -18.6%
CCOc1ccccc1CN1CCc2nc(N3CCN(c4ccccc4F)CC3)ncc2C1	inactive: -59.9%
CCCOc1ccc(CN(C(=O)c2cc(=O)c3ccc(C)cc3o2)C2CCS(=O)(=O)C2)cc1 (centres undefined)	inactive: -9.82%
COc1ccc(N2CCN(S(=O)(=O)CCNC(=O)C3CC(=O)N(c4ccccc4)C3)CC2)cc1 (centres undefined)	inactive: -5.63%
CN(C)CC[C@@H](c1ccc(Br)cc1)c1ccccn1	inactive: 4.91%
COc1cccc(C(=O)CC2(O)C(=O)Nc3ccc(Cl)cc32)c1 (centres undefined)	inactive: -32.4%
COc1cc(C)ccc1OCCSc1nc(-c2cccc(C)c2)nc2cc(=O)[nH]n12	inactive: -35.5%
Cc1nc(CC(=O)Nc2cc(Cl)ccc2C)cs1	inactive: -12.8%
COc1ccc(-n2nnc(-c3nc(-c4cccs4)no3)c2N)cc1OC	inactive: 11.3%
COC(=O)c1c(NC(=O)c2nc(SCc3cccc(C)c3)ncc2Cl)sc2c1CCCC2	inactive: -16.2%

Structure (SMILES)	activation
CC(=O)N1CCCC1c1nc2ccccc2n1Cc1cccc(Cl)c1 (centres undefined)	inactive: -20.3%
CCc1ccc(CNC(=O)COc2cc(=O)n(CC)c3ccccc23)cc1	active: 117%
COc1cc(NC(=O)CC(c2ccc(C)cc2)N2Cc3ccccc3C2=O)cc(OC)c1 (centres undefined)	inactive: 17.3%
Cc1ccc(-c2noc(-c3ccc(NCc4ccco4)c([N+](=O)[O-])c3)n2)cc1	inactive: 10.3%
C=C(C)C1CC=C(C(=O)O)CC1 (centres undefined)	inactive: -6.75%
COc1cc(C2CC(=O)c3c([nH]c(C(=O)OCC4CCCCC4)c3C)C2)cc(OC)c1OC (centres undefined)	inactive: 1.66%
COc1ccc(-c2nc(C)c(CCNC(=O)C(=O)Nc3ccccc3C#N)s2)cc1OC	inactive: -1.67%
CC1=C(c2ccc(F)cc2)S(=O)(=O)NC1=NCc1ccccc1F	inactive: 14.5%
CCc1nn2c(=O)cc(COC(=O)c3ccc(NC(=O)c4cccs4)cc3)nc2s1	inactive: -17.1%
COc1ccccc1C(=O)Nc1nc2nc(-c3ccccc3)cc(=O)n2[nH]1	inactive: 3.63%
Cc1ccccc1NS(=O)(=O)c1ccc2[nH]cc(C(=O)NC(C)c3ccccc3)c(=O)c2c1 (centres undefined)	inactive: -25.5%
COc1ccc(Nc2nnc(-c3cc4c(ccc5ccccc54)oc3=O)s2)cc1	inactive: 7.73%
COc1ccccc1CCNC(=O)C(=O)NCC(c1cccs1)S(=O)(=O)c1ccc(C)cc1 (centres undefined)	inactive: -18.6%
CCOc1ccccc1CNC(=O)Cn1ncn2nc(-c3cccs3)cc2c1=O	inactive: 0.392%
Cc1ccc(C)c(CNC(=O)C2CCN(c3nc4ccccc4nc3C(F)(F)F)CC2)c1	inactive: -9.46%
Cc1ccc(C)c2sc(NC(=O)c3ccc(S(=O)(=O)N4CCCC4)cc3)nc12	inactive: -14.4%
COc1ccc2c(c1)c1c(c(=O)n(CCc3ccccc3)c(=O)n1Cc1ccccc1)n2C	inactive: -7.76%
O=C(c1cc2ccc3cccnc3c2[nH]1)N1CCN(c2cccc(C(F)(F)F)c2)CC1	inactive: -27.8%
Cc1ccc(NC(=O)c2oc3ccc(S(=O)(=O)N4CCCCC4)cc3c2C)cc1C	inactive: 5.16%
COc1ccc(-c2cc(C(F)(F)F)nc(SCC(=O)N(C)Cc3ccccc3)n2)cc1OC	inactive: -14.8%
CC(=O)N1CCOc2cc(S(=O)(=O)NCc3ccc(C)cc3)c(C)cc21	inactive: -9.14%

Structure (SMILES)	activation
COc1ccc(N(C(=O)c2ccccc2F)S(=O)(=O)c2ccc3c(c2)n(C)c(=O)n3C)cc1	inactive: -2.52%
CCN1CCN(CCCNC(=O)c2cc3c(=O)n(CC)c4ccccc4c3s2)CC1	inactive: 3.06%
Cc1c(CNCc2ccc(OC(C)C)cc2)c(C(=O)O)c(C)n1Cc1ccc(Cl)cc1	inactive: -4.25%
CCOc1ccc(CNC(=O)c2ccc3c(c2)nc2n3CCOC2)cc1	inactive: -5.37%
CCOC(=O)c1cccc(NC(=O)c2cc(S(=O)(=O)N3CCCCCC3)cn2C)c1	inactive: -1.32%
COc1ccc(CNc2oc(-c3ccc(COc4ccc(Cl)cc4)o3)nc2C#N)cc1	inactive: -20.1%
Cc1ccc(C)c(CN2C(=O)c3ccccc3S(=O)c3ccc(C(=O)N4CCC(C)CC4)cc32)c1 (centres undefined)	inactive: 39.2%
CCC(C)(C)NS(=O)(=O)c1cc(-c2cc(C)no2)ccc1C	inactive: -15.1%
CCN1c2ccccc2-c2nc(SCC(=O)Nc3cccc(C(F)(F)F)c3)ncc2S1(=O)=O	inactive: -9.1%
COc1cc(O)ccc1C1CC(=O)Nc2c1c(=O)nc(SCc1ccccc1C)n2C (centres undefined)	inactive: -14.7%
COc1ccc2nc(S(=O)Cc3ncc(C)c(OC)c3C)[nH]c2c1 (centres undefined)	inactive: -10.7%
COc1ccc(CNC(=O)c2c(Nc3ccc(OC)cc3OC)sc(C(=O)c3ccc(Cl)cc3)c2N)cc1	inactive: -5.09%
CCOC(=O)CSc1nc2sc3c(c2c(=O)n1Cc1ccccc1)CCC(C(C)(C)C)C3 (centres undefined)	inactive: 0.942%
Cc1ccc(CNC(=O)C2CCC(CNS(=O)(=O)c3ccc4c(c3)CCCC(=O)N4)CC2)cc1 (centres undefined)	inactive: -3.49%
CC(C)OCCCNC(=O)CCCn1c(=O)[nH]c2ccsc2c1=O	inactive: 4.41%
COc1ccc(CN(C(=O)c2cc3ccccc3oc2=O)C2CCS(=O)(=O)C2)cc1 (centres undefined)	inactive: -10.9%
CCOc1ccc(CNC(=O)c2cc(=O)[nH]c3ccc(S(=O)(=O)N4CCCCC4)cc23)cc1	inactive: -2.13%
COc1ccc(-c2nc3c4cnn(-c5ccccc5F)c4ncn3n2)cc1	inactive: -12.9%
COC(=O)CC1Oc2ccc(F)cc2-n2cc(-c3ccc(Cl)cc3)nc21 (centres undefined)	inactive: 3.73%
O=C(Nc1cccc(-c2nc3ccccc3o2)c1)c1cc([N+](=O)[O-])ccc1N1CCOCC1	inactive: -39.3%
Cc1cccc(C)c1OCCSc1nc2ccccc2n1CC(=O)O	inactive: 26.4%

Structure (SMILES)	activation
COc1ccc(N2CCN(S(=O)(=O)c3csc(C(N)=O)c3)CC2)cc1	inactive: -1.69%
CCN(Cc1ccccc1)C(=O)Cn1c(=O)n(-c2ccc(F)c(Cl)c2)c(=O)c2sc3ccccc3c21	inactive: -11.8%
CCOC(=O)c1ccc(NC(=O)CCS(=O)(=O)c2ccc(C)cc2)cc1	inactive: -4.95%
Cc1cccc(-c2nc(CCNC(=O)c3ccco3)cs2)c1	inactive: -7.88%
O=c1[nH]c2cc(Cl)c(Cl)cc2[nH]c1=O	inactive: -4.75%
COc1ccc(NC(=O)CN2CCCN(S(=O)(=O)c3ccc(Br)cc3)CC2)c(OC)c1	inactive: -28.1%
CCOc1ccc(NC(=O)CSc2nc3c(c(=O)[nH]2)CCCC3)cc1	inactive: 1.44%
COc1ccc(C)cc1NC(=O)COCc1cc(-c2cccs2)on1	inactive: -7.84%
Cc1ccc(N(C)C(=O)Cn2cnc3onc(-c4ccc(F)cc4)c3c2=O)cc1C	inactive: -1.7%
COc1cc(C2c3c(oc4ccc(F)cc4c3=O)C(=O)N2c2nc(C)c(C)s2)cc(OC)c1OC (centres undefined)	inactive: -12.8%
O=C(CCS(=O)(=O)c1cc(Br)cc2c1N(C(=O)C1CC1)CC2)N1CCN(c2ccc(F)cc2)CC1	inactive: -26.8%
Cc1ccc2ncc(C(=O)NCCc3ccc(S(N)(=O)=O)cc3)c(=O)n2c1	inactive: -0.391%
COc1ccc(CCNC(=O)CCCn2c(=O)c3ccccc3n(Cc3ccc(C)cc3)c2=O)cc1OC	inactive: -4.41%
Cc1ccc(CCNC(=O)c2cc3c(=O)oc4ccccc4c3s2)cc1	inactive: 2.59%
Cc1nn2c(C)c(C(=O)N3CCN(c4ccccc4)CC3)cnc2c1-c1ccccc1	inactive: -25.3%
COc1ccccc1OCCn1c(COc2cc(C)ccc2C)nc2ccccc21	inactive: -30.5%
CCOc1ccccc1Nc1sc(C(=O)c2ccccc2)c(N)c1C(=O)NCCc1ccccc1	inactive: -9.71%
O=C(c1ccc(Cl)cc1)N(Cc1ccco1)Cc1ccco1	inactive: -13.7%
COc1cc(NC(=O)CSc2nc3ccccc3nc2Cc2ccccc2OC)cc(OC)c1	inactive: -24.6%
COc1cccc(CNC(=O)CNS(=O)(=O)c2ccc3nc(C)sc3c2)c1	inactive: -7.03%
COc1ccc(NC(=O)Cn2c(=O)n(CC3CCCO3)c(=O)c3ccccc32)c(OC)c1 (centres undefined)	inactive: -6.35%
